Measurements: a compilation of properties of binary mixtures (doi:10.1021/je990132b)
Some of these densities may be calculated back from excess volumes.

Assay: xn = mol fraction of the nth substance listed
Conditions: 298.15 K, 100 kPa

COCCOC + CC#N
Conditions | mass density [kg/m3]
x1 = 0.0339 | 783.5
x1 = 0.0637 | 788.9
x1 = 0.0854 | 792.7
x1 = 0.107 | 796.3
x1 = 0.1367 | 800.9
x1 = 0.161 | 804.5
x1 = 0.1843 | 807.8
x1 = 0.2035 | 810.4
x1 = 0.2366 | 814.6
x1 = 0.2722 | 818.8
x1 = 0.2923 | 821
x1 = 0.308 | 822.7
x1 = 0.3167 | 823.6
x1 = 0.3528 | 827.2
x1 = 0.3672 | 828.6
x1 = 0.3901 | 830.7
x1 = 0.4107 | 832.5
x1 = 0.4905 | 838.8
x1 = 0.5391 | 842.2
x1 = 0.5792 | 844.7
x1 = 0.6911 | 851
x1 = 0.7816 | 855.1
x1 = 0.8356 | 857.3
x1 = 0.8598 | 858.2
x1 = 0.8879 | 859.1

COCCOCCOC + CC#N
Conditions | mass density [kg/m3]
x1 = 0.0037 | 778.6
x1 = 0.0121 | 782.6
x1 = 0.023 | 787.6
x1 = 0.0444 | 796.8
x1 = 0.062 | 803.9
x1 = 0.0827 | 811.7
x1 = 0.1207 | 824.8
x1 = 0.1437 | 832.1
x1 = 0.1763 | 841.5
x1 = 0.2139 | 851.4
x1 = 0.2405 | 857.8
x1 = 0.2671 | 863.8
x1 = 0.3139 | 873.3
x1 = 0.38 | 885.1
x1 = 0.4482 | 895.5
x1 = 0.5263 | 905.5
x1 = 0.61 | 914.4
x1 = 0.6524 | 918.3
x1 = 0.7402 | 925.3
x1 = 0.7995 | 929.3
x1 = 0.8671 | 933.2
x1 = 0.9455 | 936.8

COCCOCCOCCOC + CC#N
Conditions | mass density [kg/m3]
x1 = 0.0024 | 778.6
x1 = 0.0088 | 783.3
x1 = 0.021 | 791.8
x1 = 0.0301 | 797.9
x1 = 0.0575 | 814.6
x1 = 0.1477 | 857.9
x1 = 0.1809 | 870.5
x1 = 0.2182 | 882.9
x1 = 0.2528 | 893.2
x1 = 0.2958 | 904.5
x1 = 0.3483 | 916.4
x1 = 0.3885 | 924.4
x1 = 0.4353 | 932.7
x1 = 0.4731 | 938.7
x1 = 0.5015 | 942.8
x1 = 0.5698 | 951.5
x1 = 0.6518 | 960.2
x1 = 0.6661 | 961.6
x1 = 0.8757 | 976.2
x1 = 0.9459 | 979.3

COCCOCCOCCOCCOC + CC#N
Conditions | mass density [kg/m3]
x1 = 0.0021 | 779
x1 = 0.0107 | 787.3
x1 = 0.0144 | 790.8
x1 = 0.0189 | 794.9
x1 = 0.024 | 799.4
x1 = 0.059 | 827
x1 = 0.0874 | 845.9
x1 = 0.1615 | 884.3
x1 = 0.1908 | 896.4
x1 = 0.2188 | 906.6
x1 = 0.2677 | 922.2
x1 = 0.2904 | 928.5
x1 = 0.3252 | 937.3
x1 = 0.3733 | 948
x1 = 0.451 | 962.2
x1 = 0.5325 | 974
x1 = 0.6128 | 983.2
x1 = 0.6695 | 988.7
x1 = 0.7087 | 991.9
x1 = 0.7633 | 996.2
x1 = 0.8021 | 998.5
x1 = 0.9588 | 1005.4
